# Source: the supplement of paper PMC10037445
# “And” between values parts separate entries of the source, which are not always exact repeats. Identical values can stand only once. In all, about 2,900 compounds were measured (“NF-kB SEAP reporter activity, fold change vs agonist alone”: median about 0.99, highest 2% from about 2.6 on). This is one part of the list.
# Columns and labels:
# RAW-Dual [1] = test: NF-kB SEAP reporter activity, fold change vs agonist alone; cytotoxicity flag (confluency mask): not cytotoxic; higher = enhanced NF-kB activity
# In short: (§1)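 Cytotoxic wells were those whose IncuCyte confluency was below 70% of agonist controls in both mask sets. The cells were RAW-Dual macrophages at 50,000 cells/well in DMEM on 384-well plates, dosed with 50 nL of library stock by pin tool, stimulated with a PRR agonist 1 h later, and kept at 37 °C, 5% CO2 for 20 hours. IRF and NF-κB reporter activity, as fold change over agonist-alone wells, came from supernatant read by QuantiLuc luminescence and QuantiBlue absorbance, respectively.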
# RAW-Dual [2] = test: NF-kB SEAP reporter activity, fold change vs agonist alone; higher = enhanced NF-kB activity; settings: cytotoxicity flag (confluency mask): not cytotoxic
# In short: as §1
# [3] = agonist: ODN 1826 (TLR9) 0.5 ug/mL
# [4] = agonist: Pam2CSK4 (TLR2/6) 0.1 ug/mL
# [5] = agonist: Pam3CSK4 (TLR2/1) 0.1 ug/mL
# [6] = library stock concentration (final ~1000-fold dilution): 10 mM, agonist: Imiquimod (TLR7) […]
# [7] = library stock concentration (final ~1000-fold dilution): 10 mM, agonist: MPLA (TLR4) […]
smiles,measurement,setting,value
COc1cc(F)c(C(C)C)cc1-c1ccc(C(F)(F)F)cc1CN1C(=O)OC(c2cc(C(F)(F)F)cc(C(F)(F)F)c2)C1C (configuration not stated) (library stock concentration (final ~1000-fold dilution): 10 mM),NF-kB SEAP reporter activity,RAW-Dual [1]; agonist: LPS (TLR4) 0.1 ug/mL,1.06
same,NF-kB SEAP reporter activity,RAW-Dual [1]; [3],1.03
same,NF-kB SEAP reporter activity,RAW-Dual [1]; [4],0.902
same,NF-kB SEAP reporter activity,RAW-Dual [1]; [5],0.986
COc1cc(F)c(C(C)C)cc1-c1ccc(C(F)(F)F)cc1CN1C(=O)OC(c2cc(C(F)(F)F)cc(C(F)(F)F)c2)C1C (configuration not stated),NF-kB SEAP reporter activity,RAW-Dual [2]; [6],0.991
same,NF-kB SEAP reporter activity,RAW-Dual [2]; [7],1.06
N=C(N)NCCCCC(N)C(=O)O (configuration not stated),NF-kB SEAP reporter activity,"RAW-Dual [2]; library stock concentration (final ~1000-fold dilution): 10 mM water, agonist: Imiquimod (TLR7) […]",0.998
same,NF-kB SEAP reporter activity,"RAW-Dual [2]; library stock concentration (final ~1000-fold dilution): 10 mM water, agonist: MPLA (TLR4) […]",1.03
N=C(N)NCCCCC(N)C(=O)O (configuration not stated) (library stock concentration (final ~1000-fold dilution): 10 mM water),NF-kB SEAP reporter activity,RAW-Dual [1]; agonist: LPS (TLR4) 0.1 ug/mL,1.12
same,NF-kB SEAP reporter activity,RAW-Dual [1]; [3],1.12
same,NF-kB SEAP reporter activity,RAW-Dual [1]; [4],1.13
same,NF-kB SEAP reporter activity,RAW-Dual [1]; [5],1.06
CC(C)C(=O)c1c(C(C)C)nn2ccccc12,NF-kB SEAP reporter activity,RAW-Dual [2]; [7],1.54
CC(C)C(=O)c1c(C(C)C)nn2ccccc12 (library stock concentration (final ~1000-fold dilution): 10 mM),NF-kB SEAP reporter activity,RAW-Dual [1]; agonist: LPS (TLR4) 0.1 ug/mL,1.73
same,NF-kB SEAP reporter activity,RAW-Dual [1]; [3],1.58
same,NF-kB SEAP reporter activity,RAW-Dual [1]; [4],1.47
same,NF-kB SEAP reporter activity,RAW-Dual [1]; [5],1.57
O=C(c1ccccc1)c1ccc2nc(NC(=O)c3csc(C4CCN(c5ncnc6ccsc56)CC4)n3)[nH]c2c1 (library stock concentration (final ~1000-fold dilution): 10 mM),NF-kB SEAP reporter activity,RAW-Dual [1]; agonist: LPS (TLR4) 0.1 ug/mL,2.75 and 2.17
same,NF-kB SEAP reporter activity,RAW-Dual [1]; [3],1.57 and 1.25
same,NF-kB SEAP reporter activity,RAW-Dual [1]; [4],0.384 and 0.435
same,NF-kB SEAP reporter activity,RAW-Dual [1]; [5],0.694 and 0.75
Cn1c(N2CCCCS2(=O)=O)nc(C(=O)NCc2ccc(F)cc2)c(O)c1=O,NF-kB SEAP reporter activity,RAW-Dual [2]; [6],0.565
same,NF-kB SEAP reporter activity,RAW-Dual [2]; [7],0.6
Cn1c(N2CCCCS2(=O)=O)nc(C(=O)NCc2ccc(F)cc2)c(O)c1=O (library stock concentration (final ~1000-fold dilution): 10 mM),NF-kB SEAP reporter activity,RAW-Dual [1]; agonist: LPS (TLR4) 0.1 ug/mL,1.11
same,NF-kB SEAP reporter activity,RAW-Dual [1]; [3],0.823
same,NF-kB SEAP reporter activity,RAW-Dual [1]; [4],0.981
same,NF-kB SEAP reporter activity,RAW-Dual [1]; [5],0.808
C=CC1(C)CC(OC(=O)CSCCN(CC)CC)C2(C)C(C)CCC3(CCC(=O)C32)C(C)C1O.O=C(O)/C=C/C(=O)O (configuration not stated) (library stock concentration (final ~1000-fold dilution): 10 mM),NF-kB SEAP reporter activity,RAW-Dual [1]; agonist: LPS (TLR4) 0.1 ug/mL,1.37
same,NF-kB SEAP reporter activity,RAW-Dual [1]; [3],0.712
same,NF-kB SEAP reporter activity,RAW-Dual [1]; [4],0.821
same,NF-kB SEAP reporter activity,RAW-Dual [1]; [5],0.841
C=CC1(C)CC(OC(=O)CSCCN(CC)CC)C2(C)C(C)CCC3(CCC(=O)C32)C(C)C1O.O=C(O)/C=C/C(=O)O (configuration not stated),NF-kB SEAP reporter activity,RAW-Dual [2]; [7],1.13
COc1cccc(C(N)=O)c1,NF-kB SEAP reporter activity,RAW-Dual [2]; [7],1.03
COc1cccc(C(N)=O)c1 (library stock concentration (final ~1000-fold dilution): 10 mM),NF-kB SEAP reporter activity,RAW-Dual [1]; agonist: LPS (TLR4) 0.1 ug/mL,1.31
same,NF-kB SEAP reporter activity,RAW-Dual [1]; [3],0.972
same,NF-kB SEAP reporter activity,RAW-Dual [1]; [4],1.23
same,NF-kB SEAP reporter activity,RAW-Dual [1]; [5],0.844
